# Results published in the supplement of paper PMC8728848.
# The list shows a part of the results.
# Key:
# Assay in all cases: glycan array binding signal (z-score within array); higher = stronger binding
# Details in all cases: glycan notation: IUPAC condensed, linker removed
# [1] = target: Fuc(a1-2)Gal
# Outline: (§1)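 The binding signal is a Z-score computed within each array. Data were drawn from 3228 arrays in the Consortium for Functional Glycomics database, restricted to those with a known protein sequence. Scores were averaged over arrays of the same protein sequence at different concentrations or buffers, and over linkers, and negative values can be taken as non-binding.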
# [2] = target: Fuc(a1-2)Gal(b1-3)GalNAc
# Outline: as §1
# [3] = target: Fuc(a1-2)Gal(b1-3)GalNAc(b1-3)Gal
# Outline: as §1
# [4] = target: Fuc(a1-2)Gal(b1-3)GalNAc(b1-3)Gal(a1-4)Gal(b1-4)Glc
# Outline: as §1
# [5] = target: Fuc(a1-2)Gal(b1-3)GalNAc(b1-4)[Neu5Ac(a2-3)]Gal(b1-4)Glc
# Outline: as §1
# [6] = target: Fuc(a1-2)Gal(b1-3)GlcNAc
# Outline: as §1
# [7] = target: Fuc(a1-2)Gal(b1-3)GlcNAc(b1-3)Gal(b1-4)Glc
# Outline: as §1
# [8] = target: Fuc(a1-2)Gal(b1-3)[Fuc(a1-4)]GlcNAc
# Outline: as §1
# [9] = target: Fuc(a1-2)Gal(b1-4)Glc
# Outline: as §1
# [10] = target: Fuc(a1-2)Gal(b1-4)Glc6S
# Outline: as §1
# [11] = target: Fuc(a1-2)Gal(b1-4)GlcNAc
# Outline: as §1
# [12] = target: Fuc(a1-2)Gal(b1-4)GlcNAc(b1-3)Gal(b1-4)GlcNAc
# Outline: as §1
# [13] = target: Fuc(a1-2)Gal(b1-4)GlcNAc(b1-3)Gal(b1-4)GlcNAc(b1-3)Gal(b1-4)GlcNAc
# Outline: as §1
# [14] = target: Fuc(a1-2)Gal(b1-4)GlcNAc6S
# Outline: as §1
# [15] = target: Fuc(a1-2)Gal(b1-4)[Fuc(a1-3)]GlcNAc
# Outline: as §1
# [16] = target: Fuc(a1-2)Gal(b1-4)[Fuc(a1-3)]GlcNAc(b1-3)Gal(b1-4)[Fuc(a1-3)]GlcNAc
# Outline: as §1
# [17] = target: Fuc(a1-2)Gal(b1-4)[Fuc(a1-3)]GlcNAc(b1-3)Gal(b1-4)[Fuc(a1-3)]GlcNAc(b1-3)Gal(b1-4)[Fuc(a1-3)]GlcNAc
# Outline: as §1
# [18] = target: Fuc(a1-2)Gal6S(b1-4)Glc
# Outline: as §1
# [19] = target: Fuc(a1-2)Gal6S(b1-4)Glc6S
# Outline: as §1
# [20] = target: Fuc(a1-2)Gal6S(b1-4)GlcNAc
# Outline: as §1
# [21] = target: Fuc(a1-2)[Gal(a1-3)]Gal
# Outline: as §1
# [22] = target: Fuc(a1-2)[Gal(a1-3)]Gal(b1-3)GlcNAc
# Outline: as §1
# [23] = target: Fuc(a1-2)[Gal(a1-3)]Gal(b1-4)Glc
# Outline: as §1
# [24] = target: Fuc(a1-2)[Gal(a1-3)]Gal(b1-4)GlcNAc
# Outline: as §1
# [25] = target: Fuc(a1-2)[Gal(a1-3)]Gal(b1-4)[Fuc(a1-3)]GlcNAc
# Outline: as §1
# [26] = target: Fuc(a1-2)[Gal(a1-4)]Gal(b1-4)GlcNAc
# Outline: as §1
# [27] = target: Fuc(a1-2)[GalNAc(a1-3)]Gal
# Outline: as §1
# [28] = target: Fuc(a1-2)[GalNAc(a1-3)]Gal(b1-3)GlcNAc
# Outline: as §1
# [29] = target: Fuc(a1-2)[GalNAc(a1-3)]Gal(b1-4)Glc
# Outline: as §1
# [30] = target: Fuc(a1-2)[GalNAc(a1-3)]Gal(b1-4)GlcNAc
# Outline: as §1
# [31] = target: Fuc(a1-2)[GalNAc(a1-3)]Gal(b1-4)[Fuc(a1-3)]GlcNAc
# Outline: as §1
# [32] = target: Fuc(a1-2)[GalNAc(a1-4)]Gal(b1-4)GlcNAc
# Outline: as §1
# [33] = target: Fuc(a1-2)[GalNAc(b1-3)]Gal
# Outline: as §1
# [34] = target: Fuc(a1-3)GlcNAc
# Outline: as §1
# [35] = target: Fuc(a1-3)[Gal(b1-4)]Glc6S
# Outline: as §1
# [36] = target: Fuc(a1-3)[Gal(b1-4)]GlcNAc
# Outline: as §1
# [37] = target: Fuc(a1-3)[Gal(b1-4)]GlcNAc(b1-2)Man(a1-3)[Fuc(a1-3)[Gal(b1-4)]GlcNAc(b1-2)Man(a1-6)]Man(b1-4)GlcNAc(b1-4)GlcNAc
# Outline: as §1
# [38] = target: Fuc(a1-3)[Gal(b1-4)]GlcNAc(b1-2)Man(a1-6)[Gal(b1-4)GlcNAc(b1-2)Man(a1-3)]Man(b1-4)GlcNAc(b1-4)GlcNAc
# Outline: as §1
# [39] = target: Fuc(a1-3)[Gal(b1-4)]GlcNAc(b1-3)Gal(b1-3)[Fuc(a1-4)]GlcNAc
# Outline: as §1
# [40] = target: Fuc(a1-3)[Gal(b1-4)]GlcNAc(b1-4)Gal(b1-4)[Fuc(a1-3)]GlcNAc
# Outline: as §1
# [41] = target: Fuc(a1-3)[Gal(b1-4)]GlcNAc(b1-4)Gal(b1-4)[Fuc(a1-3)]GlcNAc(b1-4)Gal(b1-4)[Fuc(a1-3)]GlcNAc
# Outline: as §1
# [42] = target: Fuc(a1-3)[Gal(b1-4)]GlcNAc6S
# Outline: as §1
# [43] = target: Fuc(a1-3)[Gal3S(b1-4)]Glc6S
# Outline: as §1
# [44] = target: Fuc(a1-3)[Gal3S(b1-4)]GlcNAc
# Outline: as §1
# [45] = target: Fuc(a1-3)[Gal3S(b1-4)]GlcNAc6S
# Outline: as §1
# [46] = target: Fuc(a1-3)[GalNAc(b1-4)]GlcNAc
# Outline: as §1
# [47] = target: Fuc(a1-4)GlcNAc
# Outline: as §1
# [48] = target: Fuc(b1-3)GlcNAc
# Outline: as §1
# [49] = target: Gal(a1-2)Gal
# Outline: as §1
# [50] = target: Gal(a1-3)Gal
# Outline: as §1
# [51] = target: Gal(a1-3)Gal(b1-3)GlcNAc
# Outline: as §1
# [52] = target: Gal(a1-3)Gal(b1-4)Glc
# Outline: as §1
# [53] = target: Gal(a1-3)Gal(b1-4)GlcNAc
# Outline: as §1
# [54] = target: Gal(a1-3)Gal(b1-4)[Fuc(a1-3)]GlcNAc
# Outline: as §1
# [55] = target: Gal(a1-3)GalNAc
# Outline: as §1
# [56] = target: Gal(a1-3)[Gal(a1-4)]Gal(b1-4)GlcNAc
# Outline: as §1
# [57] = target: Gal(a1-4)Gal(b1-4)Glc
# Outline: as §1
# [58] = target: Gal(a1-4)Gal(b1-4)GlcNAc
# Outline: as §1
# [59] = target: Gal(a1-4)GlcNAc
# Outline: as §1
# [60] = target: Gal(a1-6)Glc
# Outline: as §1
binder,measurement,setting,value
"Langerin CRD (Homo sapiens), Q9UJ71 (protein) QVVSQGWKYFKGNFYYFSLIPKTWYSAEQFCVSRNSHLTSVTSESEQEFLYKTAGGLIYWIGLTKAGMEGDWSWVDDTPFNKVQSVRFWIPGEPNNAGNNEHCGNIKAPSLQAWNDAPCDKTFLFICKRPYVPSEPSAWSHPQFEK",glycan array binding signal (z-score),[1],0.647
same,glycan array binding signal (z-score),[2],-0.389
same,glycan array binding signal (z-score),[3],-0.3
same,glycan array binding signal (z-score),[4],-0.251
same,glycan array binding signal (z-score),[5],-0.54
same,glycan array binding signal (z-score),[6],0
same,glycan array binding signal (z-score),[7],0.033
same,glycan array binding signal (z-score),[8],0.233
same,glycan array binding signal (z-score),[9],0.866
same,glycan array binding signal (z-score),[10],0.793
same,glycan array binding signal (z-score),[11],-0.118
same,glycan array binding signal (z-score),[12],0.495
same,glycan array binding signal (z-score),[13],-0.328
same,glycan array binding signal (z-score),[14],0.385
same,glycan array binding signal (z-score),[15],0.368
same,glycan array binding signal (z-score),[16],0.292
same,glycan array binding signal (z-score),[17],-0.112
same,glycan array binding signal (z-score),[18],1.29
same,glycan array binding signal (z-score),[19],2.79
same,glycan array binding signal (z-score),[20],1.18
same,glycan array binding signal (z-score),[21],4.04
same,glycan array binding signal (z-score),[22],-0.398
same,glycan array binding signal (z-score),[23],-0.019
same,glycan array binding signal (z-score),[24],-0.266
same,glycan array binding signal (z-score),[25],-0.349
same,glycan array binding signal (z-score),[26],0.546
same,glycan array binding signal (z-score),[27],3.31
same,glycan array binding signal (z-score),[28],-0.448
same,glycan array binding signal (z-score),[29],-0.5
same,glycan array binding signal (z-score),[30],-0.319
same,glycan array binding signal (z-score),[31],-0.408
same,glycan array binding signal (z-score),[32],0.525
same,glycan array binding signal (z-score),[33],1.16
same,glycan array binding signal (z-score),[34],1.52
same,glycan array binding signal (z-score),[35],-0.557
same,glycan array binding signal (z-score),[36],-0.507
same,glycan array binding signal (z-score),[37],-0.56
same,glycan array binding signal (z-score),[38],-0.425
same,glycan array binding signal (z-score),[39],-0.405
same,glycan array binding signal (z-score),[40],-0.427
same,glycan array binding signal (z-score),[41],-0.354
same,glycan array binding signal (z-score),[42],-0.281
same,glycan array binding signal (z-score),[43],-0.452
same,glycan array binding signal (z-score),[44],-0.465
same,glycan array binding signal (z-score),[45],-0.293
same,glycan array binding signal (z-score),[46],-0.442
same,glycan array binding signal (z-score),[47],-0.367
same,glycan array binding signal (z-score),[48],0.05
same,glycan array binding signal (z-score),[49],-0.41
same,glycan array binding signal (z-score),[50],-0.413
same,glycan array binding signal (z-score),[51],-0.623
same,glycan array binding signal (z-score),[52],-0.487
same,glycan array binding signal (z-score),[53],-0.613
same,glycan array binding signal (z-score),[54],-0.306
same,glycan array binding signal (z-score),[55],-0.466
same,glycan array binding signal (z-score),[56],-0.304
same,glycan array binding signal (z-score),[57],-0.395
same,glycan array binding signal (z-score),[58],-0.479
same,glycan array binding signal (z-score),[59],-0.292
same,glycan array binding signal (z-score),[60],-0.427
